Measurements taken from article PMC3702553.
These are yes or no findings as the source states them, for the method shown. Binding seen in cells or lysates may run through a third protein. Some entries that bind do so weakly or less than the wild type.

The chains behind the UniProt entries cited, without tags or fusion partners. Where a name states a change or a piece, a line headed by the entry shows the natural chain unless it says otherwise. A line that says so, or that is headed by a name, gives the form on record, which may keep a tag or linker.
UniProt Q9Y5X1: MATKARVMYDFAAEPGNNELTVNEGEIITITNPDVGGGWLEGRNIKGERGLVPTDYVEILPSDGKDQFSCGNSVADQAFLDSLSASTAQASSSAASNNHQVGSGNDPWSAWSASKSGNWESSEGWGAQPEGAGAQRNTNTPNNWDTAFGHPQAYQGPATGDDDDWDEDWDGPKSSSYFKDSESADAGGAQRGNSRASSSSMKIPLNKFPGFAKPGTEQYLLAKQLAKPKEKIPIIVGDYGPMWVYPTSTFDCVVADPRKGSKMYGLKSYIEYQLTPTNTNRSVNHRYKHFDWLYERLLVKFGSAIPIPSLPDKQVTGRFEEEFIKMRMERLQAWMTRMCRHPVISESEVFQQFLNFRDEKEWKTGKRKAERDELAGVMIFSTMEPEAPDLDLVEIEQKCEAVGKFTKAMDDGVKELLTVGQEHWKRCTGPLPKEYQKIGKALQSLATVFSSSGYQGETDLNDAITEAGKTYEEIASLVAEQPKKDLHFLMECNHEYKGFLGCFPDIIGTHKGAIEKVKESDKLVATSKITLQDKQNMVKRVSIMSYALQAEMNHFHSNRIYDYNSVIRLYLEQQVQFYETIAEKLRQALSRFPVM
GST-SNX9 LC2 mutant (164DWDEDW to 164DSDEDS) (Q9Y5X1, form named): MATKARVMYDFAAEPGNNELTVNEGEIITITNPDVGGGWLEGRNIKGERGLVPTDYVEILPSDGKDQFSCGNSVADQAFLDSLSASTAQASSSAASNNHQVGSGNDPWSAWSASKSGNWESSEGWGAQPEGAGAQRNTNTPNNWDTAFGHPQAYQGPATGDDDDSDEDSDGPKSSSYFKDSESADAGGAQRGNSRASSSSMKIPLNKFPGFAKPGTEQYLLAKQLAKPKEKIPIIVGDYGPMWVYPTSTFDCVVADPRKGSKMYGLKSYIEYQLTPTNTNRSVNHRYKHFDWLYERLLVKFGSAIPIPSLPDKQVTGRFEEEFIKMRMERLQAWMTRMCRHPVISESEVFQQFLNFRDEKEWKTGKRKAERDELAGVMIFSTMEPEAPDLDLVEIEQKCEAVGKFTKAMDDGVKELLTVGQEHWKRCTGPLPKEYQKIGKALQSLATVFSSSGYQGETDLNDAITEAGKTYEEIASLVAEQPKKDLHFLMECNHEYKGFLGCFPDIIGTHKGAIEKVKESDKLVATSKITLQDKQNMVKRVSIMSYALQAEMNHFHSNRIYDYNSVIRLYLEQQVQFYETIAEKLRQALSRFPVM
GST-SNX9 LC1W1 mutant (107PWSAW to 107PSSAW) (Q9Y5X1, form named): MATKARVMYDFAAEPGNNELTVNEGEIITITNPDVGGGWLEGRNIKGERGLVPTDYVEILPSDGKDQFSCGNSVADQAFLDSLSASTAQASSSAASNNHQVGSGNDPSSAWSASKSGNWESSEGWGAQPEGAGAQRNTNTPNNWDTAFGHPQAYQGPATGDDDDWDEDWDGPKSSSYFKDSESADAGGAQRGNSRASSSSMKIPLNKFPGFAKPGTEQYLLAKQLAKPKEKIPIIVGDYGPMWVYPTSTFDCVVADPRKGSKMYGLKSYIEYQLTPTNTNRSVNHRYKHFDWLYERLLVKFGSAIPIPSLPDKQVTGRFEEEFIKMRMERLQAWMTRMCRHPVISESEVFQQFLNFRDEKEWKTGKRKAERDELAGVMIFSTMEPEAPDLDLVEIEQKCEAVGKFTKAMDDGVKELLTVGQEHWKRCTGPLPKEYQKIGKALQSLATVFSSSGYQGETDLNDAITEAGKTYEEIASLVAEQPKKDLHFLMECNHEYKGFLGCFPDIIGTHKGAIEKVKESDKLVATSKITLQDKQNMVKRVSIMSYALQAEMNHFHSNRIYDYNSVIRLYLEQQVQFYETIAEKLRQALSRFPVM
GST-SNX9 LC2W1 mutant (164DWDEDW to 164DSDEDW) (Q9Y5X1, form named): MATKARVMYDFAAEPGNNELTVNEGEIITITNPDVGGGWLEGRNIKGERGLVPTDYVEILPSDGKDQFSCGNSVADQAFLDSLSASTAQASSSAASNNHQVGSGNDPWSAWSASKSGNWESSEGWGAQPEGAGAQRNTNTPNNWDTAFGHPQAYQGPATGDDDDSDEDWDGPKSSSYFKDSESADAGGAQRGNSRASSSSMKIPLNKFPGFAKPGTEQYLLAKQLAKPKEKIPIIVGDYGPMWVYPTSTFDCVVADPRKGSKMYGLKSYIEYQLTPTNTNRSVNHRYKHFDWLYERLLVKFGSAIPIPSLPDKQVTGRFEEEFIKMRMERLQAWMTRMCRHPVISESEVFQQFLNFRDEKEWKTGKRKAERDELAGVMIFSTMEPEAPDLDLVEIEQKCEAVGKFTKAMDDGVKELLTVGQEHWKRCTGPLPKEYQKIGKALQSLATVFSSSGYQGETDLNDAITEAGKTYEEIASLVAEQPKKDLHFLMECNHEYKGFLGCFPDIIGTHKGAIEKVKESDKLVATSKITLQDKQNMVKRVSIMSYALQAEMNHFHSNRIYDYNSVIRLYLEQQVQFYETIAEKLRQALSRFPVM
GST-SNX9 LC1 mutant (107PWSAW to 107PSSAS) (Q9Y5X1, form named): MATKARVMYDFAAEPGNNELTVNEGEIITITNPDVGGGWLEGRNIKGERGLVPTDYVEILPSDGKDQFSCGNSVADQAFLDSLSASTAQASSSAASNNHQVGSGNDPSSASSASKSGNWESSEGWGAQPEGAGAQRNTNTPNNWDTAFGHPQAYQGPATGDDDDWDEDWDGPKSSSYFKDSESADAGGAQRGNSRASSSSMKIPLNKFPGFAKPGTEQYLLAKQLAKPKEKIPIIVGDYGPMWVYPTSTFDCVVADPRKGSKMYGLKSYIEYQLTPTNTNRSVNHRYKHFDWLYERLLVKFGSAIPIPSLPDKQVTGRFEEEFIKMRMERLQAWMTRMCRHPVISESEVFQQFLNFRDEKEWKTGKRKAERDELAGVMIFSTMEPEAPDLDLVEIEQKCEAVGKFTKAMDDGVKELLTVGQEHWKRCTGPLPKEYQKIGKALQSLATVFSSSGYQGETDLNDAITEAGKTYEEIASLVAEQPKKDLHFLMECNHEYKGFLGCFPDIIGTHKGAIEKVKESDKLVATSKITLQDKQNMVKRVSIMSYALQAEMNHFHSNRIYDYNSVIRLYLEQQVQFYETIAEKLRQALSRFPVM
UniProt Q00610: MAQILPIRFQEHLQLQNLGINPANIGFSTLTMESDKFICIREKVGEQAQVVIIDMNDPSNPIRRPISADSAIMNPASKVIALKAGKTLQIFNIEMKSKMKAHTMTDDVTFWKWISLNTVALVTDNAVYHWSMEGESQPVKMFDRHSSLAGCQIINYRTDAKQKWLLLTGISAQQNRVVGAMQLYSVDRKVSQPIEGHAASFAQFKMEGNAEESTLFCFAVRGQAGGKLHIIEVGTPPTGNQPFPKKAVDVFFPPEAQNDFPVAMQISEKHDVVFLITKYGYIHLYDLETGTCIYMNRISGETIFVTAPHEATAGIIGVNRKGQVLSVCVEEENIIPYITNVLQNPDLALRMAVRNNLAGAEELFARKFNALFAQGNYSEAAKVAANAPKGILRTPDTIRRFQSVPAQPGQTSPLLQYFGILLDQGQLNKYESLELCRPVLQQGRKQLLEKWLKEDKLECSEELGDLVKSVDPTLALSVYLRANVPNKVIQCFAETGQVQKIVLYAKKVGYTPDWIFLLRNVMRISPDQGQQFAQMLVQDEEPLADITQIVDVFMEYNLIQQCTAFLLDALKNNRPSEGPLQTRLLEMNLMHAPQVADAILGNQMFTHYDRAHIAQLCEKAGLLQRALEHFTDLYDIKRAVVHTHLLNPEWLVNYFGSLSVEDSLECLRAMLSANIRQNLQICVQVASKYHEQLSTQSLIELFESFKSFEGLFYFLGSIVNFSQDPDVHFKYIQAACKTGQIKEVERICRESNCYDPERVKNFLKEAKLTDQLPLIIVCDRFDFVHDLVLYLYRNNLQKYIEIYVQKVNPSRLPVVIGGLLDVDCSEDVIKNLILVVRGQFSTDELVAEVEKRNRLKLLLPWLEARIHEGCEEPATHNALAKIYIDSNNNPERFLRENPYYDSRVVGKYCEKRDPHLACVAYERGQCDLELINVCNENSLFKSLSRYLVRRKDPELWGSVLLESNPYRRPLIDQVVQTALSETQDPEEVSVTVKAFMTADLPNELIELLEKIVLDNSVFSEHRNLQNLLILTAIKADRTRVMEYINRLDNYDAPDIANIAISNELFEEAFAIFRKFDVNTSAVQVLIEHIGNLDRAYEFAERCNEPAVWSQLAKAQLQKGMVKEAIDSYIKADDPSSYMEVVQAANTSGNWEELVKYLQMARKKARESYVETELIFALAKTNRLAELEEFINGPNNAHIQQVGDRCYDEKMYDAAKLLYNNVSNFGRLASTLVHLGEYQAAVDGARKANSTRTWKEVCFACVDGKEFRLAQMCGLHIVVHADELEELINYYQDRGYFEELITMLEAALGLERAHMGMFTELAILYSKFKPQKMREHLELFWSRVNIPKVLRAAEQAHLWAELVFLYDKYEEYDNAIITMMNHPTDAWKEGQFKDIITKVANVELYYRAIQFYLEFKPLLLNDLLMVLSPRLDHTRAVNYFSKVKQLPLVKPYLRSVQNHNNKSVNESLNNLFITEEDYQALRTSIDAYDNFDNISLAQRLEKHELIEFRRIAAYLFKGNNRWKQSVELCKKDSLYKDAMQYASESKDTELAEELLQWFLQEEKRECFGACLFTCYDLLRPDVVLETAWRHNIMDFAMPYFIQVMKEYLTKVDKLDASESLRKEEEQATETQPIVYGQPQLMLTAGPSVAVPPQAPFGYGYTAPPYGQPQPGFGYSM

Assays:
Assay in all cases: pull-down; GST-SNX9 (wild type or LC mutants) bound to GSH-Sepharose beads incubated with 2 mg of lysate of asynchronously growing HeLa cells for 1 h at 4°C; lysis buffer 25 mM Tris-HCl pH 7.4, 150 mM NaCl, 1 mM EDTA, 1 mM EGTA, 1% Triton X-100; bound proteins immunoblotted; only the target …
[1] = molecular target: GST-SNX9 LC2 mutant (164DWDEDW to 164DSDEDS) (UniProt Q9Y5X1)
[2] = molecular target: GST-SNX9 LC1W1 mutant (107PWSAW to 107PSSAW) (UniProt Q9Y5X1)
[3] = molecular target: GST-SNX9 LC2W1 mutant (164DWDEDW to 164DSDEDW) (UniProt Q9Y5X1)
[4] = molecular target: GST-SNX9 LC1 mutant (107PWSAW to 107PSSAS) (UniProt Q9Y5X1)
[5] = molecular target: full length wild-type GST-SNX9 (sorting nexin 9) (UniProt Q9Y5X1)

binding [1]: no binding | binding [2]: no binding | binding [3]: no binding | binding [5]: binds
Substance: clathrin heavy chain (CHC) (from UniProt Q00610 1-1675)
binding [4]: no binding
